Laboratory results as given in the RNAGym collection of RNA variant scans (doi:10.7554/elife.90254).
The source gives no read counts; variants with many changes may rest on few reads.

B1: LINE1-mini (parent)
chain: GGCAGAGCUCAACACAGCGUGGCAAAGUGGCUGUGGCUAGACUGCC

Variants of: B1
Assay: self-cleavage, relative activity (ratio to wild type); higher = more cleavage; in vitro, sequencing; the parent is a self-cleaving ribozyme

| Variant | self-cleavage |
| --- | --- |
| C8A C23A C31G U38C | 0.17 |
| G1C G7U C8A A11U A39U | 0.01 |
| G1U C3A C42A | 0.14 |
| A6U A26C G27A | 0.04 |
| G7C C10G A26C U32G | 0.02 |
| C15U C23U G33C G40A | 0.03 |
| G2U A6C G40A | 0.01 |
| A4G C8U U28A C31U | 0.25 |
| G5A U9A A12U C15U U34A | 0.13 |
| G21A U38A A39G | 0.22 |
| A26U G36A C46U | 0.15 |
| C15U U20A A26C U32A | 0.03 |
| G29A G33A G36U C45U | 0.01 |
| C3G C13U A26U C37U A39G | 0.04 |
| A14C A16U G22A A26G C37G | 0 |
| A16U G21A U34A | 0.04 |
| G1C U20A C23A C31U C37A G44U | 0.08 |
| G1U G2C A11G A12U U38G A41U | 0.02 |
| C8A C10G C15U A25G A26U | 0.02 |
| G5U C23U C37A | 0.62 |
| G7C C13G C23A U32C | 0.01 |
| A14U C15G C18U U34A G44A | 0.13 |
| C3U A4C C13U U28C | 0.1 |
| C3U C10A G22C A41G | 0.01 |

| Variant | self-cleavage |
| --- | --- |
| C13U A14G G30A | 0.21 |
| A26U C37A U38A A41U C45U | 0.06 |
| C8A U9G G17A G27U G35U | 0.03 |
| A41U C42G C46U | 0.14 |
| G5U U9A G44U | 0.06 |
| G1U G2U A25U G27U U28G | 0.03 |
| A6U A12U A16G C18U A25U A26U G27U G35A | 0.02 |
| C10G A12G G22A C31U G35A | 0.01 |
| C10A G21U G44C | 0.04 |
| C3G G44A C46G | 0.14 |
| C23G G33A C42U | 0.06 |
| G2A G30U G35U | 0.1 |
| C8G G21A C23A | 0.18 |
| A16U A25C G44U | 0 |
| G1A C8G G33A C37U | 0.22 |
| G22A A25C U32A U34A G40C U43A | 0.01 |
| A4G G5U A14U G29U | 0.05 |
| C13A A25C A26G C37G G44C C45U | 0.01 |
| G1C C3U A4U G5A C8A U34G G36A G40C | 0.21 |
| G27C C31G U38A | 0.16 |
| C3U G5C C15A U28A A41C C45G | 0.07 |
| C13A C31U G33A | 0 |
| G5A G19U G22U | 0.15 |
| G7A C10A A11C C45G | 0.03 |

| Variant | self-cleavage |
| --- | --- |
| A14C G35A G36U | 0.18 |
| A16G G21C G30C | 0.83 |
| G5U C18A G35U U38A | 0.03 |
| G2U U9G C10A C23A G30U C37A | 0 |
| G5C A12G G35C C45A | 0.01 |
| C10U C15G A24G C42U | 0.01 |
| G1A G7C G19U | 0.12 |
| A25C G30A C37U | 0.02 |
| G1C A14C G22U G30C | 0.03 |
| G2A C8U G36C U38G | 0.47 |
| G2A U9A A26U C45G | 0.39 |
| C10A C31U U34A C42G | 0.01 |
| C10A A11C C42U | 0.04 |
| C8U C10U C46A | 0.03 |
| C10A A39C G40A | 0.08 |
| G22U G29C G36C C37A | 0.4 |
| A11U G29A G35A | 1.47 |
| G2A C13U U20A G27U | 0.31 |
| C13U G27C G36U A41G | 0.05 |
| G22C G27A A39U | 1.32 |
| G1A A24G A25U A39U | 0.1 |
| A6U C10A A12C G17U U32C G36A C45G | 0.01 |
| G27U U34C C37U | 0.04 |
| A24C C31A A39U C42G | 0.04 |

| Variant | self-cleavage |
| --- | --- |
| A6G A11G U32G A41C | 0 |
| U9A C23U A25U | 0.19 |
| G19A U28G C31G G33U | 0.08 |
| A4U A6C G7C | 0.21 |
| A12C C15A G19U G40A | 0.01 |
| A16C G17A G33A | 0.02 |
| G19U U28C A39C | 0.04 |
| G1U A12U A14G A16U | 0 |
| A12U C18U U20A | 0.12 |
| C18U C23A A25C G27U | 1.47 |
| C3A C10A A24G | 0.02 |
| C3G C15G U20A | 0.03 |
| C8G C18G G21A G36A A39U | 0.01 |
| G1C A4G C10G C15G | 0.01 |
| G1C C10U A14G G21U | 0.02 |
| C3U A4G G7C C18A U28G G30C G33A | 0.02 |
| C3G A6G U38G | 0.02 |
| C10U A12G G22U C37U | 0.01 |
| G1C G19A U32A U34A | 0.04 |
| C3A G21U G27U G40A | 0.08 |
| C8A C23G G27U G33C | 0.04 |
| G1C G21A G44A | 0.03 |
| G2U A11G G17U G19A G29U | 0.02 |
| C3G A25U C46U | 0.11 |

| Variant | self-cleavage |
| --- | --- |
| C3A G22U C42U | 0.15 |
| A11G G22U C23A G27A | 0 |
| C13G C15A C37A C46G | 0.03 |
| A11U A14C G19A A25C | 0.01 |
| A6G G7U C8G | 0.11 |
| G2C C3A G5U G7C G19C C23A G29C C31A G33A | 0.12 |
| U9A C13A G21U A26U C42G | 0.1 |
| G7A C13U A16C C18G | 0.04 |
| G5C A6C A41G | 0.28 |
| A4U C10A A11G G36U C42A | 0 |
| C13A A25U U28C G29U A41C | 0.02 |
| G5U C15A C23G U38C G40C | 0.02 |
| G7A G17C U34A | 0.02 |
| C15U A16C A26C | 0.06 |
| U9A C23A A25G G27C C46G | 0.05 |
| C18U A26U G35U | 0.02 |
| G2U G7A G33C A41C C42G U43G | 0.03 |
| C10A G27U G35A G44C | 0.01 |
| C18A C31G G44A | 0.02 |
| A11U G27A C37A | 0.04 |
| G17U U28C U34A | 0.05 |
| A6G A12U G36C | 1.52 |
| C13A A14C U34A C42G | 0.1 |
| A4G U32G G44C | 0.04 |

| Variant | self-cleavage |
| --- | --- |
| C15G G17U A39U | 0.02 |
| G17A U32A C42U | 0.02 |
| C3U A24U A25G | 1.91 |
| G2A A16U G21A G27U | 0.18 |
| C3A C8G U32G G36C C46A | 0.1 |
| C3G A16C C18G G19A G21U A25C G27U G40C C45A | 0.01 |
| A12U G17A G36C G40C A41C C45U | 0.01 |
| A6U G36U C42U | 0.11 |
| G35A A41U C46A | 0.05 |
| G1C A16U G22A U38A | 0.03 |
| A12G G29C A41C | 0.04 |
| U9A C10U G21A A24U | 0.04 |
| G5U G17A G19U G40A C42A | 0.05 |
| G27C U28A U43G G44A | 0 |
| A26U U43A C45U | 0.09 |
| A16C C18G G29U C31G | 0 |
| C23U G29A A41G | 0.12 |
| G2U C3A C18A G35C | 0.04 |
| C18A G22U G33A G40C A41U | 0.06 |
| G2A C18U G33C | 0.03 |
| G2C A6C G33U | 0.01 |
| A14C C15G G19A C46U | 0.03 |
| G1U A26C A39C | 0.02 |
| A6U G7A C18U | 0.02 |

| Variant | self-cleavage |
| --- | --- |
| C18G G22C G27C | 0.49 |
| C8G A16U G22U A26U C31A C37G C42U | 0.16 |
| A12G A16G A26C | 0 |
| A4G C15U C18U U20A G36A U43C | 0.05 |
| C3G C13U C42U | 0.45 |
| G2A U32C A39U G40C | 0.09 |
| G5U A16U G19U C23U A26C | 0.07 |
| A16C U34C G35A | 0.05 |
| A12G G33U G40U | 0.06 |
| G33A G35U G36A | 0.13 |
| C15A C31U C37A | 0.1 |
| G1A G2A C10G G17A | 0.14 |
| A11C C18U G27A G40C | 0.02 |
| G1A G2U U20A | 0.14 |
| G5C A12C G33A U34C | 0.03 |
| A6G A14U G29U | 0.08 |
| G7C G33A C42U | 0.15 |
| G1C G2A A24G | 0.11 |
| A11G C13U U38A | 0.02 |
| U20A G30U C37G | 0 |
| G5U G30A C45G C46U | 0.19 |
| C13G A14C G19C G27C | 0.02 |
| C3A C13A A39U | 0.24 |
